Results are given in words; binding and its absence hold for the method and conditions named. For some assays here: In cells and extracts the contact can be indirect. Some entries that bind do so weakly or less than the wild type.
Key:
[1] = biological target: desmin overexpressed in HEK293 cells (UniProt P17661); test: co-IP; V5-tagged STIM1 fragments coexpressed with desmin in HEK293 cells; IP with V5 or desmin antibodies on protein A/G beads, IgG as negative control; Western blot with V5 antibody
[2] = biological target: biotinylated STIM1-CT (238-535 aa) from Sf9 cells (UniProt Q13586); test: ELISA; wells coated with STIM1-CT incubated with lysates of C2C12 myoblasts transfected with rising amounts of desmin plasmid; endogenous STIM1 detected by anti-STIM1 N-terminus antibody; OD405; only the target purified
[3] = biological target: STIM1-His tagged CC1 peptides (238-342 aa) (UniProt Q13586); test: pull-down; His-tagged STIM1 fragment and desmin-CT coexpressed in E. coli BL21 from pETDUET-1; supernatant on cobalt beads; 300 mM NaCl, 20 mM Tris-Cl pH 7.5, 5% glycerol, 5 mM imidazole; wash with 25 mM, elution with 300 mM imidazole; Coomassie-stained gel
[4] = biological target: His-tagged STIM1 CC1-SOAR (238-535 aa), coexpressed in E. coli (UniProt Q13586); test: as above
[5] = biological target: biotinylated STIM1-CT (238-535 aa) from Sf9 cells (UniProt Q13586); test: ELISA; 4 pmol biotin-STIM1-CT held on NeutrAvidin-coated wells; skeletal muscle lysate or lysate of HEK293 cells with His-tagged Orai1, 2 h at room temperature; detection with anti-desmin, anti-His tag, anti-TRPC1 and anti-STIM1 N-terminus antibodies; OD405; only the target purified
[6] = biological target: endogenous desmin (mouse skeletal muscle) (mouse (endogenous in skeletal muscle)) (UniProt P31001); test: co-IP; skeletal muscle lysate (RIPA buffer) incubated with anti-desmin, anti-STIM1 or control IgG overnight; immunoblot with STIM1 antibody

Protein sequences, listed by entry. Tags and fused reporters are not part of them. Lines headed by an entry give the natural chain unless they say otherwise; changes in a name come on top. Residues count along the entry.
UniProt P17661: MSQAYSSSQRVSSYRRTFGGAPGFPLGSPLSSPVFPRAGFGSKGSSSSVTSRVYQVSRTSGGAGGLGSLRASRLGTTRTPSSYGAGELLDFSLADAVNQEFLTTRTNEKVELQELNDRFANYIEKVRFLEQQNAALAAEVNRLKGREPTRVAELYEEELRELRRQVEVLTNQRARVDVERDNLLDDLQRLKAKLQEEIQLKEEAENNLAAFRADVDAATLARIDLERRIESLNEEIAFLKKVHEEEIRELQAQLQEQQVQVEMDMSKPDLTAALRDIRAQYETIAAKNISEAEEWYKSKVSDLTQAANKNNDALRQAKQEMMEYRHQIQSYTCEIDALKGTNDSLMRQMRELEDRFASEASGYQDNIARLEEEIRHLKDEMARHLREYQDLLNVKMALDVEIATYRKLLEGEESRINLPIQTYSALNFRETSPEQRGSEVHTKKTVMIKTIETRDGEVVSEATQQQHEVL
UniProt P31001: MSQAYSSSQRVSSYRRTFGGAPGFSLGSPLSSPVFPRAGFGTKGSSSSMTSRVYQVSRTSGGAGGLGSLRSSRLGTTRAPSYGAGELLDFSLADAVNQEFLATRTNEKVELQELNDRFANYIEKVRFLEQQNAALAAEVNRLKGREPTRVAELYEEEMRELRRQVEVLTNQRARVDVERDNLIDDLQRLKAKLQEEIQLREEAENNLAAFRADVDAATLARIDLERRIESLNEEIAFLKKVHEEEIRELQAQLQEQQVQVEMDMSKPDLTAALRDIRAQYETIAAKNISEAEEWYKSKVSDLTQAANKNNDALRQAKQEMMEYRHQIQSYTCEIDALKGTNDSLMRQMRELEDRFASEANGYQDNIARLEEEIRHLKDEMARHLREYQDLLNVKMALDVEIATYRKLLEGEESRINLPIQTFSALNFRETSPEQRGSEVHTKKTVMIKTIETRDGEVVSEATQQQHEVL
UniProt P70302, residues 23-685: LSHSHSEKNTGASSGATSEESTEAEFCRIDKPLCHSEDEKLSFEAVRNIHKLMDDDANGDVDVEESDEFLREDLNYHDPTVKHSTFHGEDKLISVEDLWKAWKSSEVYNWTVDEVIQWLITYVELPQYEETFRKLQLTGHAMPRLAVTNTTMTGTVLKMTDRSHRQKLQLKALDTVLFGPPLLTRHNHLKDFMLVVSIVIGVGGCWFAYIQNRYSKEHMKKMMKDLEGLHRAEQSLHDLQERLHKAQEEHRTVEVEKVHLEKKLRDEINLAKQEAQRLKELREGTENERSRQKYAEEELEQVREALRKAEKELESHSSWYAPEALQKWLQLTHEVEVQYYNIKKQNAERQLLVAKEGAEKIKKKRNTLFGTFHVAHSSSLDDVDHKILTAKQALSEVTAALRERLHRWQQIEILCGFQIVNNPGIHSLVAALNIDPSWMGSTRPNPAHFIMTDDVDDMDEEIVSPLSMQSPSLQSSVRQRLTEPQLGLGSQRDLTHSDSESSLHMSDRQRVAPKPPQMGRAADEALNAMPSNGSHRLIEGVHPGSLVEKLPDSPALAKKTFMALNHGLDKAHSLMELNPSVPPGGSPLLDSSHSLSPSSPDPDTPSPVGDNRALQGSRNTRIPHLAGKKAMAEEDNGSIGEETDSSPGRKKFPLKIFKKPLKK
UniProt Q61056: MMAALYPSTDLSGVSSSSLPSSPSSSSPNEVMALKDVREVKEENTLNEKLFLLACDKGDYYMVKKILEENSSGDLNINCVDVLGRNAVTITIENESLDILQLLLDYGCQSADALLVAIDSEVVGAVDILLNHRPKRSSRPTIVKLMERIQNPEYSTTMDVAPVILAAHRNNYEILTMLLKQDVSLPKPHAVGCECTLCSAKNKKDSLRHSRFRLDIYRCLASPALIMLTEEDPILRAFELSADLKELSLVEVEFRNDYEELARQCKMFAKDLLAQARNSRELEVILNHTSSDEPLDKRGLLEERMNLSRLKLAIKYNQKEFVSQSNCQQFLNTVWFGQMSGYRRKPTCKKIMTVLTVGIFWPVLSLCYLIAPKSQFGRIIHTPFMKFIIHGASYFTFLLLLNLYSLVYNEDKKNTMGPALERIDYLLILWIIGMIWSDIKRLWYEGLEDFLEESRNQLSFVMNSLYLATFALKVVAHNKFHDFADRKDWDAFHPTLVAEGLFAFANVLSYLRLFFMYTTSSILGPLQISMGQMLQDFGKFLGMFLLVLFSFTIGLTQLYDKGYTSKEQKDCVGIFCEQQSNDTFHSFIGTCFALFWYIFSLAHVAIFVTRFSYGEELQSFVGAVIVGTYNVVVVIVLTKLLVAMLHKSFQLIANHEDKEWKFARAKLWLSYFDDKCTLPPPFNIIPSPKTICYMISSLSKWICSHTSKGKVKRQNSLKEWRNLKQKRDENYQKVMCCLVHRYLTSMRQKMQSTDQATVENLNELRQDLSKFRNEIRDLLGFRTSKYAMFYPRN

Row | Substance | binding [1] | binding [5] | further results
1 | STIM1 P/S PBD domain (526-685 aa) with a V5 tag (from UniProt Q13586 526-685) (domain or fragment) | no binding |  | 
2 | endogenous STIM1 (C2C12 cells) (from UniProt P70302 23-685) |  |  | binding [2]: binds
3 | C-terminal desmin (371-470 aa) (from UniProt P17661 371-470) (domain or fragment) |  |  | binding [3]: no binding; binding [4]: binds
4 | endogenous TRPC1 (mouse skeletal muscle) (from UniProt Q61056 1-793) |  | no binding | 
5 | STIM1 inhibitory domain (448-535 aa) with a V5 tag (from UniProt Q13586 448-535) (domain or fragment) | no binding |  | 
6 | endogenous STIM1 (mouse skeletal muscle) (from UniProt P70302 23-685) |  | binds | binding [6]: binds

From PMC8492340
